The record followed here is the supplement of paper PMC8728848.

The sample as a whole holds a higher share of the strongest signals than the screen did.

What all share (experiment): glycan array binding signal (z-score within array); higher = stronger binding
Holding throughout (conditions): glycan notation: IUPAC condensed, linker removed

Test [1] deals with Neu5Ac(a2-6)Gal(b1-4)GlcNAc(b1-2)Man(a1-3)[Neu5Ac(a2-6)Gal(b1-4)GlcNAc(b1-2)Man(a1-6)]Man(b1-4)GlcNAc(b1-4)[Fuc(a1-6)]GlcNAc. The gist of the method:
(§1)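 Negative Z-scores can be read as non-binding. The Z-score is calculated within each array and then averaged across arrays of one protein sequence at different concentrations or buffers and across linkers. Arrays, 3228 in all, were curated from the Consortium for Functional Glycomics database and kept only where the protein sequence was available.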

The subject of test [2] is Neu5Ac(a2-6)Gal(b1-4)GlcNAc(b1-2)Man(a1-6)Man(b1-4)GlcNAc(b1-4)GlcNAc. Summed up: as §1
The subject of test [3] is Neu5Ac(a2-6)Gal(b1-4)GlcNAc(b1-2)Man(a1-6)[Man(a1-3)]Man(b1-4)GlcNAc(b1-4)GlcNAc. Summed up: as §1
For test [4], the system named is Neu5Ac(a2-6)Gal(b1-4)GlcNAc(b1-3)Gal(b1-4)GlcNAc(b1-6)[Gal(b1-3)]GalNAc. The gist of the method: as §1
Test [5] concerns Neu5Ac(a2-6)Gal(b1-4)GlcNAc(b1-2)[Neu5Ac(a2-6)Gal(b1-4)GlcNAc(b1-4)]Man(a1-3)[GlcNAc(b1-4)][Neu5Ac(a2-6)Gal(b1-4)GlcNAc(b1-2)[Neu5Ac(a2-6)Gal(b1-4)GlcNAc(b1-6)]Man(a1-6)]Man(b1-4)GlcNAc(b1-4)GlcNAc. The gist of the method: as §1
Test [6] relates to Neu5Ac(a2-6)Gal(b1-4)GlcNAc(b1-3)Gal(b1-4)GlcNAc(b1-2)Man(a1-3)[Neu5Ac(a2-6)Gal(b1-4)GlcNAc(b1-3)Gal(b1-4)GlcNAc(b1-2)Man(a1-6)]GalNAc. The gist of the method:
as §1

The test system of test [7] is Neu5Ac(a2-6)Gal(b1-4)GlcNAc(b1-2)[Neu5Ac(a2-6)Gal(b1-4)GlcNAc(b1-6)]Man(a1-6)[Neu5Ac(a2-6)Gal(b1-4)GlcNAc(b1-2)Man(a1-3)][GlcNAc(b1-4)]Man(b1-4)GlcNAc(b1-4)GlcNAc. The gist of the method: as §1

On to “Thrombomodulin Extracellular (Homo sapiens) (chain not printed)”, for which the “glycan array binding signal (z-score)” value worked out at 0.403 in test [1] and 2.06 in test [2]. Regarding “Meso764 (Homo sapiens) (chain not printed)”, the “glycan array binding signal (z-score)” value in test [3] was 0.299; in test [4], -0.641. For the substance MBP (Homo sapiens) (chain not printed), the “glycan array binding signal (z-score)” value in test [5] was -0.219; in test [6] it was 0.503. With “Gal 3 (Homo sapiens) (chain not printed)”, in test [7], the “glycan array binding signal (z-score)” value is -0.083.
